# According to PMC6919601, “Identification of Plasmodium dipeptidyl aminopeptidase allosteric inhibitors by high throughput screening” (PLoS ONE, 2019):
# Out of some 110,000 compounds screened, about 230 (0.21%) showed an effect of 50% or more. The list shows a part of the results.
# Target: DPAP1 (Plasmodium falciparum, UniProt Q8IIJ9)
# Experiment: primary screen, percent inhibition; read by cleavage of a fluorogenic dipeptide substrate; higher = more effect of the substance
# Set-up: species or system P. falciparum D10 trophozoite lysates; single well
# 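Also: 30 min substrate incubation versus DMSO and 10 µM JCP410 controls.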
# Chain of DPAP1 (Q8IIJ9 whole entry, looked up): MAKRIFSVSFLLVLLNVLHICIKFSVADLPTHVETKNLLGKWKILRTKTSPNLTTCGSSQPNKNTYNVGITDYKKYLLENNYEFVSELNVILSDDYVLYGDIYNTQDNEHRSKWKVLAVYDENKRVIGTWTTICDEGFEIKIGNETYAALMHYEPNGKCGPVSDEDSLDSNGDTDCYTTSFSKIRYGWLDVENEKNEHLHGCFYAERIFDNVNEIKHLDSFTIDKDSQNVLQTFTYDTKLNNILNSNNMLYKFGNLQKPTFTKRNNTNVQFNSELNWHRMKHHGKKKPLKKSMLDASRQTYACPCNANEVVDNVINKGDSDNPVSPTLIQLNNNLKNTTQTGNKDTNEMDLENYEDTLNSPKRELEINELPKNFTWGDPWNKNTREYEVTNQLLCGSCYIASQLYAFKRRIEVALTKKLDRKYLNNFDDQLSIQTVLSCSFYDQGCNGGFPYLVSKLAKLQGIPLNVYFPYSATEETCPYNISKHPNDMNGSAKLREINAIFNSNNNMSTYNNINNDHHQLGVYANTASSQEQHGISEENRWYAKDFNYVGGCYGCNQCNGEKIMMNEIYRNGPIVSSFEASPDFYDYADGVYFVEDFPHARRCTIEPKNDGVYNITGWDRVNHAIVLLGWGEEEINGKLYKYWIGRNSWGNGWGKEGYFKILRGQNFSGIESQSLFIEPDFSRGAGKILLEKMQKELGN
row,Structure (SMILES),% Inhibition @ 10 uM
1,N#C/C(=C\c1c(Oc2ccccc2)nc2ccccn2c1=O)C(=O)NCc1ccco1,1.06%
2,COc1ccc(-c2noc(-c3cccc4ccccc34)n2)cc1,0.343%
3,O=c1/c(=C/c2cccc3ccccc23)sc2nc(-c3ccc(F)cc3)nn12,3.87%
4,Cc1ccc(S(=O)(=O)N2CCCC(C(=O)N3CCc4ccccc4C3)C2)cc1 (stereo not shown),3.87%
5,CCCOc1cccc(C2C3=C(O)CC(C)(C)CC3=Nc3ccccc3N2C(C)=O)c1 (stereo not shown),-6.62%
6,COc1ccc(-c2nc(CS(=O)CC(=O)NC3CCCCCC3)c(C)o2)cc1 (stereo not shown),-2.85%
7,COc1ccc(/C=C/c2nn3c(-c4ccncc4)nnc3s2)cc1,27.1%
8,CC(c1ccccc1)N1C(=O)c2ccc(Br)cc2C1=O (stereo not shown),2.7%
9,N=C1/C(=C\c2ccc(-c3ccccc3Cl)o2)C(=O)N=C2SC(N3CCOCC3)=NN12,3.32%
10,O=C(C1c2ccccc2C(=O)N2CCc3ccccc3C12)N1CCC2(CC1)OCCO2 (stereo not shown),-7.85%
11,Cn1c(=O)c2c(-c3ccccc3)n(-c3ccc(C(=O)O)cc3)cc2n(C)c1=O,9.68%
12,Cc1ccc(OCC(=O)Nc2ccc(C(C)C)cc2)cc1,-3.03%
13,CCN1CCC(N(CC)CCN(C)C)CC1,-0.307%
14,CN1C(=O)C(=Cc2ccc(-c3ccc(Br)c4ccccc34)o2)C(=O)N(C)C1=O,1.37%
15,CCN1CCN(C(C(=O)NC2CCCC2)c2ccc(Cl)cc2)CC1 (stereo not shown),-2.04%
16,O=C(NCCC1=CCCCC1)C1c2ccccc2Oc2ccccc21,-1.1%
17,Oc1ccc(CN2CCC(N3CCCCC3)CC2)cc1,-1.75%
18,O=C(c1ccccc1)c1cccnc1C(=O)O,1.19%
19,O=C(O)C1C2CCC(C2)C1C(=O)Nc1ccc(Cl)cc1 (stereo not shown),-0.996%
20,CCN(CC)CCOC(=O)C12CC3CC(CC(C3)C1)C2,1.62%
21,CCOC(=O)c1c(NC(C)=O)sc2c1CCC/C2=N\OC(=O)c1ccc(Br)cc1,2.8%
22,CCn1c2ccccc2c2cc(CN3CCC(O)(c4ccc(Cl)cc4)CC3)ccc21,4.68%
23,O=C(O)c1ccc(CNC2CCCc3ccccc32)s1 (stereo not shown),-2.37%
24,COc1ccc(N(CC(=O)Nc2ccc(C)cc2C)S(C)(=O)=O)c(OC)c1,-7.09%
25,CCCOc1ccc(C2c3c(oc4ccc(F)cc4c3=O)C(=O)N2CCCN2CCOCC2)cc1 (stereo not shown),0.628%

row,Structure (SMILES),% Inhibition @ 10 uM
1,CCOc1ccc(CCNC(=O)COCc2cc(-c3ccc(F)cc3)on2)cc1,-3.81%
2,Cc1cc(-c2ccc(C)c(S(=O)(=O)N3CCN(C4CCCCC4)CC3)c2)on1,0.098%
3,CC1CN(Cc2ccc(-c3ccccc3)cc2)CC(C)O1 (stereo not shown),-1.5%
4,O=C1NC(=O)C23CCC12C1c2ccccc2C3c2ccccc21 (stereo not shown),0.956%
5,O=C(NCCc1ccccc1)c1ccc2c(c1)ncn2-c1ccc(F)cc1F,-3.93%
6,Cc1cc(F)c(F)c(C(=O)N2CCC(C)CC2)c1Cl,-3.04%
7,Cc1ccccc1-n1c(C)cc(/C=C2\NC(=O)NC2=O)c1C,-3.92%
8,O=C(Cn1ncc2ccc(Cl)cc21)NC1CCCCC1,-1.11%
9,CCOc1ccccc1C1CC(=O)NC(SCC(=O)Nc2nccs2)=C1C#N (stereo not shown),-3.56%
10,COC(=O)C1=CNC=C(C(=O)OC)C1c1cc(OC)c(OC)c(OC)c1,15.9%
11,O=C(c1nn2c(C(F)(F)F)cc(-c3ccccc3)nc2c1Cl)N1CCN(c2ccc(F)cc2)CC1,-3.44%
12,O=C(O)C1CC(c2ccccc2)=C(c2ccccc2)CC1C(=O)c1ccccc1 (stereo not shown),17.1%
13,Cc1nn(Cc2ccccc2)c(C)c1C(=O)O,-0.744%
14,COc1ccc(Cl)cc1N/C=C/C(=O)c1ccc(OC)c(OC)c1,1.08%
15,COC(=O)c1c(C)oc2ccc(O)c(CN3CCCCC3)c12,3.74%
16,c1cnn(-c2cc(NC3CCCCC3)ncn2)c1,3.48%
17,Fc1ccccc1N1CCN(C2CCN(Cc3ccccc3)CC2)CC1,-6.62%
18,Cc1ccc(S(=O)(=O)Nc2ccc(NC(=O)COc3ccc(Cl)cc3)cc2)cc1,-1.35%
19,Cc1cccc(CN2C(=O)N/C(=C/c3cc(C)n(-c4ccncc4)c3C)C2=O)c1,-2.75%
20,COC(=O)C1=C(C)N(C2CCCCC2)C(=O)/C1=C\c1ccc(O)cc1,0.408%
21,COc1cccc(C2CC(=O)NC3=C2C(=O)CCC3)c1 (stereo not shown),-5.2%
22,CCOc1c(Cl)cc(C(=O)Nc2ccccc2O)cc1Cl,-12.7%
23,CC1CN(C(=O)/C(=C\c2ccccc2)NC(=O)c2ccccc2)CC(C)O1 (stereo not shown),0.685%
24,CC(NC(=O)C(=O)NCc1ccccn1)C(c1cccs1)N1CCOCC1 (stereo not shown),-1.08%
25,O=c1nc(NCc2ccccc2)ccn1-c1nc(-c2ccccc2)oc1-c1ccccc1,-2.13%

row,Structure (SMILES),% Inhibition @ 10 uM
1,Cc1ccc(S(=O)(=O)Cc2nc(-c3ccc(C(=O)N4CCCCCC4)cc3)oc2C)cc1,-8.88%
2,CCC1CCCCN1CCCNC(=O)c1ccc(CS(=O)(=O)c2ccccc2OC)o1 (stereo not shown),2.14%
3,COc1ccc(-c2csc3nc(-c4ccc(C)cc4)oc(=O)c23)cc1,-2.26%
4,Cc1ccccc1Cn1nnc(C(=O)O)c1C(=O)O,-0.326%
5,COc1ccc(S(=O)(=O)N2CCN(C)CC2)cc1-c1nnc2c3ccccc3c(C)nn12,-2.91%
6,CC(C)(C)c1[nH]nc2c1C(c1ccc(Cl)s1)C(C#N)=C(N)O2 (stereo not shown),3.19%
7,CCOc1cc(Br)c(C(C)NC(=O)c2ccccc2)cc1OCC (stereo not shown),-1.28%
8,Cc1nnc(SCC(=O)NCc2ccc(OC(C)C)cc2)c2nn(-c3ccccc3)c(C)c12,-6.68%
9,Cc1ccc(N2CCN(C3CCN(CCc4ccccc4)CC3)CC2)cc1,1.9%
10,Cc1c(-c2nsc(NC(=O)c3ccccc3)n2)nnn1-c1ccc(C(C)C)cc1,-0.48%
11,CCCCC1(O)C(C)C(c2ccccc2)NC(c2ccccc2)C1C (stereo not shown),18.1%
12,COc1ccccc1N1CCN(Cc2cccs2)CC1,-0.192%
13,O=C(NC1CCCCCC1)c1csc2ccccc12,-3.09%
14,C=CCN1C(=O)N/C(=C/c2cc(C)n(-c3ccccc3F)c2C)C1=O,4.5%
15,C=C(C)Cn1c(COc2ccc(C)cc2)nc2ccccc21,-0.551%
16,COc1ccc(/C=C/C2=CCN(Cc3ccccc3)CC2)cc1,5.69%
17,Cc1cc(-n2ccnc2)n2c(nc3ccccc32)c1C#N,20.5%
18,O=C1Nc2c(C(=O)O)cccc2C1=O,-6.24%
19,CCC1CCCCN1C/C=C/c1ccc(N(C)C)cc1 (stereo not shown),2.7%
20,CC(=O)c1cc(-c2ccc(F)cc2)n(CCC(=O)Nc2cccc(C)n2)c1C,-0.176%
21,COc1ccc(OC2CCN(S(=O)(=O)c3ccc(C(C)(C)C)cc3)CC2)cc1,-2.84%
22,CCc1c(C)c2ccc3c(c2oc1=O)CN(Cc1ccc2c(c1)OCO2)CO3,0.442%
23,CSc1nccc2ccccc12,-3.13%
24,O=C(CSc1ccccn1)c1ccc(Br)cc1,1.96%
25,CCCCOc1ccc2c(-c3ccccc3)cc(=O)oc2c1,-0.339%

row,Structure (SMILES),% Inhibition @ 10 uM
1,COc1ccc(Br)cc1CNc1ccc(CNc2nc[nH]n2)cc1,3.49%
2,O=C(NC1CCCCCC1)c1cc(-c2ccc(Br)cc2)n[nH]1,-3.5%
3,Cc1cc(C)cc(NC(=O)c2nn(C)cc2Br)c1,-1.57%
4,CCN(CCN(C)C)Cc1ccc(SC)cc1,-0.292%
5,CN1CCC(N(C)Cc2ccc(N(C)C)cc2)CC1,-8.13%
6,CCOC(=O)c1cccc(NC(=O)C2CCCC2)c1,3.04%
7,COc1ccc(C2CC(c3cccs3)=NN2C(=O)CCC(=O)O)cc1 (stereo not shown),1.71%
8,Cc1ccccc1Cn1c(C)c(CNC2CCCc3ccccc32)c(C(=O)O)c1C (stereo not shown),-1.92%
9,Cc1c(CC(=O)NCc2ccc(Cl)cc2)c(=O)oc2cc(O)ccc12,2.54%
10,O=C(NCc1cccnc1)c1ccc(C#Cc2ccccc2)cc1,1.71%
11,CC(C)(C)N1C(=O)c2ccc(-c3nc4ccccc4s3)cc2C1=O,-0.545%
12,COc1ccc(C2CC3=NC(C)=C(C#N)C(c4cccc(F)c4)C3=C(O)C2)cc1 (stereo not shown),4.01%
13,COc1ccc(CCNc2ncnc3onc(C)c23)cc1OC,-4.97%
14,Cc1ccc(OCC(=O)Nc2ccc(C#N)cc2)cc1,-9.28%
15,CCOC(=O)c1c(C)nc2nonc2c1N,-4.93%
16,Nc1c(C(=O)NCc2ccccc2)noc1C(=O)c1ccccc1,5.45%
17,CCOC(=O)C1=C(C)OC(n2cccc2)=C(C#N)C1c1ccc(F)cc1 (stereo not shown),-5.72%
18,Cc1ccc2oc(=O)c3cc(C(=O)N(C)CCC#N)sc3c2c1,1.94%
19,O=C(NC1(C(F)(F)F)C(=O)Nc2c1c(=O)[nH]c(=O)n2-c1ccccc1)c1cccnc1 (stereo not shown),5.39%
20,CC(NC(=O)c1cc(O)nc2ccc(S(=O)(=O)N3CCCCCC3)cc12)c1ccccc1 (stereo not shown),3.2%
21,Cc1ccc(NC(=O)C2CCN(S(=O)(=O)c3ccc4[nH]c(-c5ccccc5)nc4c3)CC2)nc1,-1.4%
22,O=C(Cc1ccccc1)n1nc(-c2ccc(Cl)cc2)nc1NCc1ccco1,-2.91%
23,N#CC1=C(N)Oc2c(O)nc(O)nc2C1c1cccc([N+](=O)[O-])c1 (stereo not shown),-3.98%
24,CCCn1c2ccccc2c2cnn(CC(=O)N3CCC(Cc4ccccc4)CC3)c(=O)c21,-6.37%
25,CC(=O)n1cc(C2C(=O)CC(C)(C)CC2=O)c2ccccc21,5.03%
